Results are given in words; binding and its absence hold for the method and conditions named. In cells and extracts the contact can be indirect. Some binding calls cover weakened binding; strength is not graded here. For some assays here: Tags and fused reporters may be left off the sequences shown.

Assay [1] deals with T1, Flag-NPPS (human NPPS with a C-terminal 3 × Flag) (human) (UniProt P22413).
T1 sequence: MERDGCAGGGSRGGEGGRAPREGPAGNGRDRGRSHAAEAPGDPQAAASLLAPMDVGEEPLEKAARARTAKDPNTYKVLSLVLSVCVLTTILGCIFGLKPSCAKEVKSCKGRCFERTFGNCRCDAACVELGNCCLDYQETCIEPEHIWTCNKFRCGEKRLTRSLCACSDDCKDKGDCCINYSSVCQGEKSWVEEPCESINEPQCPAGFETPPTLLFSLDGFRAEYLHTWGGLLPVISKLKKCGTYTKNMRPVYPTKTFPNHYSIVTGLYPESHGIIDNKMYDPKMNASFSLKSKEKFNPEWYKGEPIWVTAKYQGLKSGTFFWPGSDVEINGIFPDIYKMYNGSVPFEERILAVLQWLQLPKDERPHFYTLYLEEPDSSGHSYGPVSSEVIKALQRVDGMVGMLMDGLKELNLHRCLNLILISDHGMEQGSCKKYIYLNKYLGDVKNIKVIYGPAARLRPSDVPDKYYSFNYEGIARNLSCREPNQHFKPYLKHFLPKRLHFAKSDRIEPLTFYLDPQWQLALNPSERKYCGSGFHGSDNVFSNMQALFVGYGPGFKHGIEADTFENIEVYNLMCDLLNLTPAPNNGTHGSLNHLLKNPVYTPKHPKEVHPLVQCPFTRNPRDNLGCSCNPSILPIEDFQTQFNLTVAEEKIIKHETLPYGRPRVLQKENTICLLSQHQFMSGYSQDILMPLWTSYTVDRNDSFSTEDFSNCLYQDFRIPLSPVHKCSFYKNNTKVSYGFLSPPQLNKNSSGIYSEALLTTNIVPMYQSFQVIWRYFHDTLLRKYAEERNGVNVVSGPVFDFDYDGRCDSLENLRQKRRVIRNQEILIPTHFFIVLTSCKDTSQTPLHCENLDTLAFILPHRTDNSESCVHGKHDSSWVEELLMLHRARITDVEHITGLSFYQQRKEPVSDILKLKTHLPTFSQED
As to the kind of experiment: co-IP; HEK293T cells cotransfected with Flag-NPPS and HA-HK1 or HK1 truncations and deletions; NP-40 lysates with anti-FLAG M2 magnetic beads at 4 °C overnight; Western blot.

For assay [2], the target named is T2, nucleotide pyrophosphatase (NPPS), endogenous in H292 isogenic cells (human (endogenous in H292)) (UniProt P22413).
T2 sequence: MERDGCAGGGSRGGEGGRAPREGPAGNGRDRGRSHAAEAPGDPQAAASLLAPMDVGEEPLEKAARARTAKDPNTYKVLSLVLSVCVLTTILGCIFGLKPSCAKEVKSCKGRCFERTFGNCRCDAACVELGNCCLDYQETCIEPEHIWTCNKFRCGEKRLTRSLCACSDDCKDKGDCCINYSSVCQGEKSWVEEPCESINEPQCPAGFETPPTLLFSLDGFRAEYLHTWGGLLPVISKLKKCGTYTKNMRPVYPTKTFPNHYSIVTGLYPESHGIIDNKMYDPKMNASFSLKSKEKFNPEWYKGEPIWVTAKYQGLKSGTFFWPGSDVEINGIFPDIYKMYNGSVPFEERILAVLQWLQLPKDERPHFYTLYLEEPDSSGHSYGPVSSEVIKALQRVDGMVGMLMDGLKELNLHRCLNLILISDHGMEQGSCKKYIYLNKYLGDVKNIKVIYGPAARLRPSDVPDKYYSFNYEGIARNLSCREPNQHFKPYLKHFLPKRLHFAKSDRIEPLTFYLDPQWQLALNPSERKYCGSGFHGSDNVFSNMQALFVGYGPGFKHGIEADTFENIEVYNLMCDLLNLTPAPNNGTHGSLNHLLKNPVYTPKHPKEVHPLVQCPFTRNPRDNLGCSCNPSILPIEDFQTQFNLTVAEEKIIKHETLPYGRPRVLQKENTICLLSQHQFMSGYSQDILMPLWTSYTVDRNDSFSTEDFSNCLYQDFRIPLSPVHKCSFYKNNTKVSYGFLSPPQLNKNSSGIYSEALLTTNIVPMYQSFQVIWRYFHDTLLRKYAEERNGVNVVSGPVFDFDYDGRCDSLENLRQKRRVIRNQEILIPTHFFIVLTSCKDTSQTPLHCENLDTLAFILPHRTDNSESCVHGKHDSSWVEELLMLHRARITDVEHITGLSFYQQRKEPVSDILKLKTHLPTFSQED
As to the kind of experiment: co-IP; endogenous proteins; NP-40 lysates of H292 isogenic cells (KRAS WT and KRAS G12C) incubated with anti-NPPS or anti-HK1 at 4 °C overnight, Protein A/G magnetic beads 3 h; Western blot.

B1: HK1-∆N’ (22–474 aa deletion) with a C-terminal HA (protein, UniProt P19367-1)
chain: MIAAQLLAYYFTELKDDQVKKAHFHLTKDMLLEVKKRMRAEMELGLRKQTHNNAVVKMLPSFVRRTPDGTENGDFLALDLGGTNFRVLLVKIRSGKKRTVEMHNKIYAIPIEIMQGTGEELFDHIVSCISDFLDYMGIKGPRMPLGFTFSFPCQQTSLDAGILITWTKGFKATDCVGHDVVTLLRDAIKRREEFDLDVVAVVNDTVGTMMTCAYEEPTCEVGLIVGTGSNACYMEEMKNVEMVEGDQGQMCINMEWGAFGDNGCLDDIRTHYDRLVDEYSLNAGKQRYEKMISGMYLGEIVRNILIDFTKKGFLFRGQISETLKTRGIFETKFLSQIESDRLALLQVRAILQQLGLNSTCDDSILVKTVCGVVSRRAAQLCGAGMAAVVDKIRENRGLDRLNVTVGVDGTLYKLHPHFSRIMHQTVKELSPKCNVSFLLSEDGSGKGAALITAVGVRLRTEASS
As to B1, in assay [1], the binding result was “no binding”.

B2: HK1-∆MBD (1–21 aa deletion) with a C-terminal HA (domain or fragment, UniProt P19367-1 22-917)
chain: IDKYLYAMRLSDETLIDIMTRFRKEMKNGLSRDFNPTATVKMLPTFVRSIPDGSEKGDFIALDLGGSSFRILRVQVNHEKNQNVHMESEVYDTPENIVHGSGSQLFDHVAECLGDFMEKRKIKDKKLPVGFTFSFPCQQSKIDEAILITWTKRFKASGVEGADVVKLLNKAIKKRGDYDANIVAVVNDTVGTMMTCGYDDQHCEVGLIIGTGTNACYMEELRHIDLVEGDEGRMCINTEWGAFGDDGSLEDIRTEFDREIDRGSLNPGKQLFEKMVSGMYLGELVRLILVKMAKEGLLFEGRITPELLTRGKFNTSDVSAIEKNKEGLHNAKEILTRLGVEPSDDDCVSVQHVCTIVSFRSANLVAATLGAILNRLRDNKGTPRLRTTVGVDGSLYKTHPQYSRRFHKTLRRLVPDSDVRFLLSESGSGKGAAMVTAVAYRLAEQHRQIEETLAHFHLTKDMLLEVKKRMRAEMELGLRKQTHNNAVVKMLPSFVRRTPDGTENGDFLALDLGGTNFRVLLVKIRSGKKRTVEMHNKIYAIPIEIMQGTGEELFDHIVSCISDFLDYMGIKGPRMPLGFTFSFPCQQTSLDAGILITWTKGFKATDCVGHDVVTLLRDAIKRREEFDLDVVAVVNDTVGTMMTCAYEEPTCEVGLIVGTGSNACYMEEMKNVEMVEGDQGQMCINMEWGAFGDNGCLDDIRTHYDRLVDEYSLNAGKQRYEKMISGMYLGEIVRNILIDFTKKGFLFRGQISETLKTRGIFETKFLSQIESDRLALLQVRAILQQLGLNSTCDDSILVKTVCGVVSRRAAQLCGAGMAAVVDKIRENRGLDRLNVTVGVDGTLYKLHPHFSRIMHQTVKELSPKCNVSFLLSEDGSGKGAALITAVGVRLRTEASS
B2: in assay [1], the binding entry is on record as “binds”.

B3: hexokinase 1 (HK1), endogenous in H292 isogenic cells (protein, UniProt P19367-1 1-917)
chain: MIAAQLLAYYFTELKDDQVKKIDKYLYAMRLSDETLIDIMTRFRKEMKNGLSRDFNPTATVKMLPTFVRSIPDGSEKGDFIALDLGGSSFRILRVQVNHEKNQNVHMESEVYDTPENIVHGSGSQLFDHVAECLGDFMEKRKIKDKKLPVGFTFSFPCQQSKIDEAILITWTKRFKASGVEGADVVKLLNKAIKKRGDYDANIVAVVNDTVGTMMTCGYDDQHCEVGLIIGTGTNACYMEELRHIDLVEGDEGRMCINTEWGAFGDDGSLEDIRTEFDREIDRGSLNPGKQLFEKMVSGMYLGELVRLILVKMAKEGLLFEGRITPELLTRGKFNTSDVSAIEKNKEGLHNAKEILTRLGVEPSDDDCVSVQHVCTIVSFRSANLVAATLGAILNRLRDNKGTPRLRTTVGVDGSLYKTHPQYSRRFHKTLRRLVPDSDVRFLLSESGSGKGAAMVTAVAYRLAEQHRQIEETLAHFHLTKDMLLEVKKRMRAEMELGLRKQTHNNAVVKMLPSFVRRTPDGTENGDFLALDLGGTNFRVLLVKIRSGKKRTVEMHNKIYAIPIEIMQGTGEELFDHIVSCISDFLDYMGIKGPRMPLGFTFSFPCQQTSLDAGILITWTKGFKATDCVGHDVVTLLRDAIKRREEFDLDVVAVVNDTVGTMMTCAYEEPTCEVGLIVGTGSNACYMEEMKNVEMVEGDQGQMCINMEWGAFGDNGCLDDIRTHYDRLVDEYSLNAGKQRYEKMISGMYLGEIVRNILIDFTKKGFLFRGQISETLKTRGIFETKFLSQIESDRLALLQVRAILQQLGLNSTCDDSILVKTVCGVVSRRAAQLCGAGMAAVVDKIRENRGLDRLNVTVGVDGTLYKLHPHFSRIMHQTVKELSPKCNVSFLLSEDGSGKGAALITAVGVRLRTEASS
For B3, the binding entry in assay [2] is “binds”.

B4: HA-HK1 (human HK1 with a C-terminal HA) (protein, UniProt P19367-1 1-917)
chain: MIAAQLLAYYFTELKDDQVKKIDKYLYAMRLSDETLIDIMTRFRKEMKNGLSRDFNPTATVKMLPTFVRSIPDGSEKGDFIALDLGGSSFRILRVQVNHEKNQNVHMESEVYDTPENIVHGSGSQLFDHVAECLGDFMEKRKIKDKKLPVGFTFSFPCQQSKIDEAILITWTKRFKASGVEGADVVKLLNKAIKKRGDYDANIVAVVNDTVGTMMTCGYDDQHCEVGLIIGTGTNACYMEELRHIDLVEGDEGRMCINTEWGAFGDDGSLEDIRTEFDREIDRGSLNPGKQLFEKMVSGMYLGELVRLILVKMAKEGLLFEGRITPELLTRGKFNTSDVSAIEKNKEGLHNAKEILTRLGVEPSDDDCVSVQHVCTIVSFRSANLVAATLGAILNRLRDNKGTPRLRTTVGVDGSLYKTHPQYSRRFHKTLRRLVPDSDVRFLLSESGSGKGAAMVTAVAYRLAEQHRQIEETLAHFHLTKDMLLEVKKRMRAEMELGLRKQTHNNAVVKMLPSFVRRTPDGTENGDFLALDLGGTNFRVLLVKIRSGKKRTVEMHNKIYAIPIEIMQGTGEELFDHIVSCISDFLDYMGIKGPRMPLGFTFSFPCQQTSLDAGILITWTKGFKATDCVGHDVVTLLRDAIKRREEFDLDVVAVVNDTVGTMMTCAYEEPTCEVGLIVGTGSNACYMEEMKNVEMVEGDQGQMCINMEWGAFGDNGCLDDIRTHYDRLVDEYSLNAGKQRYEKMISGMYLGEIVRNILIDFTKKGFLFRGQISETLKTRGIFETKFLSQIESDRLALLQVRAILQQLGLNSTCDDSILVKTVCGVVSRRAAQLCGAGMAAVVDKIRENRGLDRLNVTVGVDGTLYKLHPHFSRIMHQTVKELSPKCNVSFLLSEDGSGKGAALITAVGVRLRTEASS
Regarding B4, in assay [1], the binding entry was “binds”.

B5: HK1-∆C (475–917 aa deletion) with a C-terminal HA (domain or fragment, UniProt P19367-1 1-474)
chain: MIAAQLLAYYFTELKDDQVKKIDKYLYAMRLSDETLIDIMTRFRKEMKNGLSRDFNPTATVKMLPTFVRSIPDGSEKGDFIALDLGGSSFRILRVQVNHEKNQNVHMESEVYDTPENIVHGSGSQLFDHVAECLGDFMEKRKIKDKKLPVGFTFSFPCQQSKIDEAILITWTKRFKASGVEGADVVKLLNKAIKKRGDYDANIVAVVNDTVGTMMTCGYDDQHCEVGLIIGTGTNACYMEELRHIDLVEGDEGRMCINTEWGAFGDDGSLEDIRTEFDREIDRGSLNPGKQLFEKMVSGMYLGELVRLILVKMAKEGLLFEGRITPELLTRGKFNTSDVSAIEKNKEGLHNAKEILTRLGVEPSDDDCVSVQHVCTIVSFRSANLVAATLGAILNRLRDNKGTPRLRTTVGVDGSLYKTHPQYSRRFHKTLRRLVPDSDVRFLLSESGSGKGAAMVTAVAYRLAEQHRQIEETL
Consider B5, for which the binding result in assay [1] is listed as “binds”.
